What all share (test): Primary Screen for Target Class Profiling of Small Molecule Inhibitors of Methyltransferases
Test [1] concerns the target Glycine N-methyltransferase (Homo sapiens) (UniProt Q14749). The conditions noted are these: purified enzyme, MTase-Glo SAH luminescence; measured here: GNMT inhibition; at 40 µM; stronger effect = lower value. The method in brief:
(§1)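 Each enzyme was assayed with SAM and its substrate. SAH formation detected by MTase-Glo luminescence; single-point 40 uM screen[…].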

Test [2] deals with Guanidinoacetate N-methyltransferase (Homo sapiens) (UniProt Q14353). The conditions noted are these: purified enzyme, MTase-Glo SAH luminescence; measured here: GAMT inhibition; at 40 µM; stronger effect = lower value. The method in brief: as §1
Test [3] concerns the target Histamine N-methyltransferase (Homo sapiens) (UniProt P50135). The conditions noted are these: purified enzyme, MTase-Glo SAH luminescence; measured here: HNMT inhibition; at 40 µM; stronger effect = lower value. The method in brief:
as §1

Test [4] has as its target Nicotinamide N-methyltransferase (Homo sapiens) (UniProt P40261). The conditions noted are these: purified enzyme, MTase-Glo SAH luminescence; measured here: NNMT inhibition; at 40 µM; stronger effect = lower value. The method in brief: as §1
For test [5], the target named is Phenylethanolamine N-methyltransferase (Homo sapiens) (UniProt P11086). The conditions noted are these: purified enzyme, MTase-Glo SAH luminescence; measured here: PNMT inhibition; at 40 µM; stronger effect = lower value. In short, it runs like this: as §1

The list shows a part of the results. Further columns of the screen follow, without active or inactive calls.
% is scaled to controls: 0 for no effect and ±100 for the full control effect.

In the case of `CCOC(=O)Cc1ccc(NC(=O)N2Cc3c(sc4c3CCCC4)-n3cccc3C2c2cccc(F)c2)cc1` (configuration not stated), the activity change, negative = inhibition in test [1] is -4.24%; in test [2], 0%; in test [3], -4.31%; in test [4] it was -4.09%; in test [5] it was 1.1%.

Take `COC(=O)c1sccc1S(=O)(=O)Nc1ccc(Nc2ccccc2)cc1OC`: the activity change, negative = inhibition was -0.887% in test [1]; -4.43% in test [2]; 9.01% in test [3]; -15.6% in test [4]; 1.48% in test [5].

On to `Cc1ccc(-c2n[nH]n3c2nc(=O)c2ccc(C(=O)NC4CC4)cc23)cc1`, for which the activity change, negative = inhibition is -0.51% in test [1]; 0.855% in test [2]; 8.02% in test [3]; 6.3% in test [4]; 3.87% in test [5].

Turning to `COc1ccccc1C(=O)N1CCC(Cc2nncn2-c2ccccc2)CC1`, the activity change, negative = inhibition in test [1] is -4.78%; in test [2], -5.51%; in test [3], -1.28%; in test [4], -11.7%; in test [5], -4.7%.

With `COc1cccc(CN2C(=O)c3nc4ccccc4n3CC2(C)C(=O)NC2CCCCCC2)c1` (configuration not stated), the activity change, negative = inhibition in test [1] was -7.72%; in test [2], 1.79%; in test [3], -3.69%; in test [4], -10.3%; in test [5], -3.78%.

In the case of `CCOCCCNC(=O)c1cc2n(n1)CC(C)(C(=O)NC1CCCC1)N(CC)C2=O` (configuration not stated), the activity change, negative = inhibition is 7.39% in test [1]; 0.248% in test [2]; -5.54% in test [3]; 11.2% in test [4]; 6.84% in test [5].

On to `CC1(C(=O)NCc2ccccc2)Cn2c(nc3ccccc32)C(=O)N1C1CC1` (configuration not stated), for which the activity change, negative = inhibition in test [1] turned out to be 3.83%; in test [2], 0%; in test [3], 0.673%; in test [4], 9.37%; in test [5] it was 0.978%.

`Cc1cccc(-c2[nH]ncc2-c2ccnc3ccccc23)n1`: the activity change, negative = inhibition in test [1] is -0.885%; in test [2], 3.97%; in test [3], -28.5%; in test [4], -18.2%; in test [5] it was 6.26%.

Regarding `CC1(C(=O)NCc2ccccc2)Cn2c(cc3ccccc32)C(=O)N1Cc1cccs1` (configuration not stated), the activity change, negative = inhibition in test [1] is 0.514%; in test [2], 5.16%; in test [3], 2.86%; in test [4], -3.49%; in test [5], -5.09%.

With `CC(C)=CC[C@H]1O[C@]2(O)C([C@H]3CCC4[C@@]5(C)CC[C@H](O[C@@H]6O[C@H](CO)[C@H](O)[C@H](O[C@@H]7O[C@H](CO)[C@@H](O)[C@H](O)[C@H]7O)[C@H]6O[C@@H]6O[C@@H](C)[C@H](O)[C@@H](O)[C@H]6O)C(C)(C)C5CC[C@@]4(C)[C@]3(C)[C@H]2O)[C@@]1(C)O` (some centres not stated), the activity change, negative = inhibition in test [1] is -2.07%; in test [2] it was -2.97%; in test [3], 3.92%; in test [4], -10.8%; in test [5], 1.31%.

As to `CCCCN1C(=O)c2c(NC(C)=O)c3cc(F)ccc3n2CC1(C)C(=O)NCCC(C)C` (configuration not stated), the activity change, negative = inhibition in test [1] was 8.27%; in test [2], 1.41%; in test [3], 9.93%; in test [4] it was 11.2%; in test [5], 3.86%.

As for `COc1c2ccoc2nc2c(OC)c(O[C@@H]3O[C@@H](C)[C@H](O)[C@@H](O[C@@H]4O[C@H](CO)[C@@H](O)[C@H](O)[C@H]4O)[C@H]3OC(C)=O)ccc12`, the activity change, negative = inhibition in test [1] was 0.722%; in test [2], -0.026%; in test [3], 6.41%; in test [4] it was -10.1%; in test [5] it was -2.63%.

With `Cc1ccc(NC(=O)CSc2nnc3n(CCCOC(C)C)c(=O)c4ccccc4n23)c(C)c1`, the activity change, negative = inhibition was -3.18% in test [1]; 3.49% in test [2]; -6.78% in test [3]; -9.75% in test [4]; -0.914% in test [5].

In the case of `CN1CCN(C(=O)c2cc(C3CC3)[nH]n2)CC12CCNC(=O)CC2` (configuration not stated), the activity change, negative = inhibition in test [1] is -2.89%; in test [2], -5.79%; in test [3] it was -3.49%; in test [4], -6.03%; in test [5] it was 0.088%.

`COc1cc2c(NC(C)=O)c3n(c2cc1OC)CC(C)(C(=O)NC1CCCCCC1)N(CCC(C)C)C3=O` (configuration not stated): the activity change, negative = inhibition in test [1] was 1.1%; in test [2], 4.13%; in test [3], 3.37%; in test [4], 10.7%; in test [5] it was 1.12%.

For the molecule `Cn1c(=O)c2ccc(C(=O)NC3CCCCC3)cc2n2c(SCC(=O)c3ccccc3)nnc12`, the activity change, negative = inhibition in test [1] came out at 2.26%; in test [2], 0.269%; in test [3] it was 3.73%; in test [4], 10.4%; in test [5], 9.41%.

As to `CCC(C)NC(=O)c1ccc2c(=O)n(C)c3n[nH]c(=O)n3c2c1` (configuration not stated), the activity change, negative = inhibition in test [1] is -0.849%; in test [2], 0%; in test [3], 3.6%; in test [4] it was 11.5%; in test [5] it was -2.75%.

`CCN1c2cc(C(=O)Nc3cccc(F)c3)ccc2C(=O)N2CCCC21` (configuration not stated): the activity change, negative = inhibition in test [1] was -6.02%; in test [2], -2.59%; in test [3], -3.43%; in test [4], -3.54%; in test [5], 1.58%.

`Cc1ccc(NS(=O)(=O)c2ccc3[nH]c4c(c3c2)CCCC4)c(C)c1`: the activity change, negative = inhibition in test [1] was 5.42%; in test [2], 6.28%; in test [3], 4.05%; in test [4] it was -3.36%; in test [5] it was 5.33%.

For the molecule `O=C(CCc1nnc2n(Cc3ccccc3)c(=O)c3ccccc3n12)Nc1ccc(F)cc1`, the activity change, negative = inhibition is -9.05% in test [1]; -18.7% in test [2]; 7.5% in test [3]; -5.03% in test [4]; 0.752% in test [5].

Turning to `O=C(O)CCC(=O)N1CCCC1C(=O)O` (configuration not stated), the activity change, negative = inhibition in test [1] is -6.51%; in test [2] it was 1.9%; in test [3], -0.832%; in test [4], -3.87%; in test [5], 5.16%.

For the molecule `COC(=O)c1ncn2c1C(=O)N(Cc1ccc(C)o1)C(C)(C(=O)NCc1ccccc1)C2` (configuration not stated), the activity change, negative = inhibition is -0.59% in test [1]; 3.33% in test [2]; 13.8% in test [3]; 4.92% in test [4]; 8.12% in test [5].

Regarding `CC1(C)CC[C@]2(C(=O)O)CC[C@]3(C)C(=CCC4[C@@]5(C)CC[C@H](O)C(C)(C)C5CC[C@]43C)C2C1` (some centres not stated), the figures for the activity change, negative = inhibition in test [1] and in test [3] were -0.355% and 0.319%, respectively.

`COc1ccc(NC(=O)CSc2nnc3n(CCC(C)C)c(=O)c4ccccc4n23)cc1OC`: the activity change, negative = inhibition was determined as 1.13% in test [1]; 0% in test [2]; 7.31% in test [3]; 0.04% in test [4]; 3.6% in test [5].

With `Cc1ccc(C(=O)Nc2ccc3c(c2)C(=O)N(C)C2=NCCN23)cc1`, the activity change, negative = inhibition is -2.57% in test [1]; -3.71% in test [2]; -3.81% in test [3]; 0.205% in test [4]; -2.4% in test [5].

With `CC(C)CCNC(=O)C1(C)Cn2c(c(-n3cccc3)c3ccccc32)C(=O)N1Cc1ccccn1` (configuration not stated), the activity change, negative = inhibition in test [1] was 0.369%; in test [2], 0%; in test [3], -0.036%; in test [4], -11.7%; in test [5], -0.447%.

For `COc1ccc2cc3n(c2c1)CC(C)(C(=O)NC1CCCCC1)N(c1ccc2c(c1)OCCO2)C3=O` (configuration not stated), the activity change, negative = inhibition in test [1] was 1.1%; in test [2] it was 0%; in test [3], -3.44%; in test [4], -0.691%; in test [5] it was -4.04%.

For `CC1CCCC(NC(=O)C2(C)Cn3c(cc4sccc43)C(=O)N2Cc2ccccc2Cl)C1C` (configuration not stated), the activity change, negative = inhibition in test [1] is -3.49%; in test [2], 3.29%; in test [3], 1.54%; in test [4], 6.07%; in test [5], -4%.

`O=C(c1ccc2c(c1)OCCO2)N1CCc2[nH]nc(-c3ccccc3F)c2C1`: the activity change, negative = inhibition in test [1] was -21.5%; in test [2] it was -6.32%; in test [3] it was -9.95%; in test [4] it was -19%; in test [5], 6.39%.

In the case of `CC(C)c1ccc(CC(=O)N2CCCc3ncc(C(=O)NCCc4c[nH]c5ccccc45)cc32)cc1`, the activity change, negative = inhibition in test [1] is -11.4%; in test [2], -9.59%; in test [3] it was -7.61%; in test [4] it was -18.1%; in test [5] it was -5.63%.

As to `C=C(C(=O)OC)[C@@H]1CC=C2C=CC(=O)[C@H](C)[C@@]2(C)C1`, the activity change, negative = inhibition in test [1] is -6.46%; in test [2] it was -9.31%; in test [3] it was 1.32%; in test [4] it was -17.8%; in test [5], -5.65%.

With `O=c1c2ccccc2n2c(SCc3ccccc3)nnc2n1Cc1ccccc1`, the activity change, negative = inhibition was -0.293% in test [1]; 0% in test [2]; -0.319% in test [3]; -6.16% in test [4]; 0.138% in test [5].

On to `COc1cccc(C2c3cccn3-c3sc4c(c3CN2C(=O)Nc2ccccc2C(F)(F)F)CCCC4)c1` (configuration not stated), for which the activity change, negative = inhibition in test [1] is -0.707%; in test [2], 3.05%; in test [3], 7.26%; in test [4] it was -2.45%; in test [5], 5.57%.

On to `CC1(C(=O)NCc2ccc(F)cc2)Cn2cnc(C(=O)NCc3ccc(Cl)cc3)c2C(=O)N1C1CC1` (configuration not stated), for which the activity change, negative = inhibition was determined as 3.67% in test [1]; 0% in test [2]; 6.53% in test [3]; 4.17% in test [4]; 4.89% in test [5].

For `CN1CCc2ccccc2Cc2[nH]c3ccccc3c2CC1`, the activity change, negative = inhibition in test [1] is -20.7%; in test [2], 7.5%; in test [3], -11.5%; in test [4], -7.32%; in test [5] it was 5.22%.

For the molecule `CCOCCCN1C(=O)c2ccc(-c3ccco3)n2CC1(C)C(=O)NC1CCCCC1` (configuration not stated), the activity change, negative = inhibition in test [1] is -1.91%; in test [2], -0.392%; in test [3], 2.16%; in test [4], -4.13%; in test [5] it was -1.04%.

Values taken from PubChem BioAssay AID1745853 (National Center for Advancing Translational Sciences (NCATS), 2022).
